Screen size: about 210,000 compounds; about 5,900 (2.8%) were called active. The inconclusive results got no clear call from the source; some entries with a clear call stand among them for comparison. Calls follow the shape of the dose curve; as a rule, active = well fitted activation curve with a large enough effect; inconclusive = small, poorly fitted or top-dose-only effect; inactive = no such curve, though single readings can be large or run the other way. A potency beside an inconclusive call is a rough fit, not a confirmed value.
Experiment: qHTS Assay for Enhancers of SMN2 Splice Variant Expression; also: nearly all actives have a fitted effect of over 55% in size; as to activity change, positive = activation: % of control where 0% means no effect
Conditions: HEK293 SMN2-luciferase splicing reporter, luminescence, 30-36 h; activity change, positive = activation: at 46.1 µM (top of the series)
How it was run: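 HEK293 cells carry an SMN2 […]–luciferase reporter in which exon 7 inclusion puts luciferase in frame. Cells were plated 10-12 h before compound addition, then incubated 30-36 h at 37C. ONE-Glo luminescence was read; sodium butyrate at 4.5 mM final served as control.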
With `Cc1cccc(-n2c(N)c(-c3nc4ccccc4n3C)c3nc4ccccc4nc32)c1` the “activity change, positive = activation” value was inactive: -15.2%. For `Cn1c(CNc2ccccc2O)nc2ccccc21`, the “activity change, positive = activation” value was inactive: 15.3%. With `Fc1ccc(CNc2nc3c(-c4ccc(F)cc4)nnn3c3ccccc23)cc1` the “activity change, positive = activation” value was inactive: 8.16%. For `Cc1onc(-c2ccccc2)c1C(=O)c1c[nH]c(C(=O)NCc2ccncc2)c1`, the “activity change, positive = activation” value was inactive: -13.1%. In the case of `CCC(=O)N1CCc2cc(S(=O)(=O)NC(C(=O)NCc3ccc(OC)cc3)C(C)C)ccc21` (stereo not drawn), the “activity change, positive = activation” value was inactive: -1.55%. In the case of `Cc1ccc(COc2ccccc2C(=S)N2CCCC2)cc1`, the Potency was inconclusive: 25.1 µM [activator, single point]. With `CCC(=O)Nc1sc2c(c1C(N)=O)CCC2` the “activity change, positive = activation” value was inactive: -11.5%. With `CN1C(=O)N(c2ccccc2)C(Nc2nncs2)C1(C)C` (stereo not drawn) the “activity change, positive = activation” value was inactive: -15.6%. With `O=c1c2c(nc3n1CCCCC3)sc1c(O)cccc12` the Potency was inconclusive: 28.2 µM [activator, single point]. In the case of `CCOC(=O)c1cc(-c2ccccc2)sc1N`, the Potency was inconclusive: 35.5 µM [activator, single point]. In the case of `O=C(O)C1(NS(=O)(=O)c2ccc(F)c(Cl)c2)CCCCC1`, the Potency was inconclusive: 0.112 µM [activator, full curve, poor fit]. In the case of `CCN(CC)C(=S)SCC(=O)c1c(C)[nH]c2ccccc12`, the activity change, positive = activation was inconclusive: 35% [activator]. In the case of `COc1ccc(-n2c(-c3ccc(Cl)cc3)cc3c2CC(C)(C)CC3=O)c(OC)c1`, the “activity change, positive = activation” value was inactive: -10.5%. For `C=CCn1cccc(C(=O)Nc2ccc(OCC)cc2)c1=O`, the “activity change, positive = activation” value was inactive: -20.5%. For `CCOC(=O)c1sc(-c2ccc(OC)cc2)cc1NC(C)=O`, the Potency was active: 15.8 µM. With `O=C(C1CCCCC1)N(Cc1ccccc1)c1ccccn1` the Potency was inconclusive: 3.55 µM [activator, partial curve]. For `CNCc1ccccc1Sc1cccc(O)c1`, the Potency was inconclusive: 5.62 µM [activator, single point]. With `COC(=O)c1ccccc1NC(=O)CN(C1CCCCC1)S(C)(=O)=O` the Potency was inconclusive: 6.31 µM [activator, partial curve, poor fit]. In the case of `COC(=O)c1ccc(CSc2nnc(C)s2)cc1`, the Potency was active: 25.1 µM. With `Cc1nn(C)cc1CNC(=O)Nc1cccc(Cl)c1` the Potency was inconclusive: 22.4 µM [activator, single point]. With `O=C(CSc1nc2ccccc2n1Cc1cccc(Cl)c1)N1CCN(c2ccc(F)cc2)CC1` the Potency was inconclusive: 0.0251 µM [activator, full curve, poor fit]. With `COc1ccc(-c2nc3scc(-c4ccccc4)n3n2)cc1` the Potency was inconclusive: 28.2 µM [activator, partial curve, poor fit]. For `O=C(Nc1ccc(Cl)cc1)c1ccc2c(c1)N(Cc1ccccc1)C(=O)c1ccccc1S2(=O)=O`, the Potency was inconclusive: 11.2 µM [activator, partial curve, poor fit].

From PubChem BioAssay AID1458 (National Center for Advancing Translational Sciences (NCATS), 2008)
Potency is read from the fitted curve at half-maximal effect; tags tell the direction and shape of the fitted curve.
